Measured values reported in the supplement of paper PMC9151546.
Repeats are few or missing, and single values can be far off.

Tests used:
CHO-K1 [1] = assay: micronucleus frequency (% of nucleated events); higher = more micronuclei (genotoxic)
CHO-K1 [2] = assay: hypodiploid nuclei frequency (% of nucleated events); higher = more hypodiploid events (aneugenic)
Experimental: (§1)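 Flow-cytometric in vitro micronucleus assay (Litron MicroFlow) in CHO-K1 cells in 96-well plates, 19 concentrations (4.5-200 µM, n=1 per concentration). Without S9, cells were exposed for 24 h and sampled at 48 h. With Aroclor 1254-induced rat liver S9, cells were exposed for 3-4 h and sampled at 27-28 h. Read-outs are %MN and %hypodiploid nuclei relative to nucleated events, and relative survival as the nuclei-to-bead ratio versus the 1% DMSO vehicle control (x100).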

CHO-K1 [3] = assay: relative survival (nuclei to bead ratio vs DMSO control) (% of vehicle control); higher = more surviving cells
Experimental: as §1
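Throughout, for hypodiploid nuclei frequency (% of nucleated events): hypodiploid nuclei gated on a flow cytometer with 488 nm excitation after SYTOX Green staining, cultures at 37 °C, positive controls vinblastine without S9 and cyclophosphamide with S9.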
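Throughout, for micronucleus frequency (% of nucleated events): cells lysed with nuclei stained by SYTOX Green, then micronucleus-gated events counted against nucleated events by flow cytometry with 488 nm excitation.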
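Throughout, for relative survival (nuclei to bead ratio vs DMSO control): Lysed-cell nuclei stained with SYTOX Green and counted against counting beads by flow cytometry at 488 nm excitation, with vinblastine (no S9) and cyclophosphamide (plus S9) as positive controls.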

Nc1ccc(S(=O)(=O)c2ccc(N)cc2)cc1 [Dapsone]
Settings | hypodiploid nuclei frequency, CHO-K1 [2] [%] | micronucleus frequency, CHO-K1 [1] [%] | relative survival, CHO-K1 [3]
concentration: 4.5 (µM), S9 metabolic activation: with S9, exposure time: 3-4 hours | 0.2 | 1.6 | 88.5
concentration: 4.5 (µM), S9 metabolic activation: without S9, exposure time: 24 hours | 0.48 | 1.82 | 71.5
concentration: 5.63 (µM), S9 metabolic activation: with S9, exposure time: 3-4 hours | 0.22 | 1.58 | 91.1
concentration: 5.63 (µM), S9 metabolic activation: without S9, exposure time: 24 hours | 0.46 | 1.92 | 83.7
concentration: 7.04 (µM), S9 metabolic activation: with S9, exposure time: 3-4 hours | 0.26 | 1.8 | 93
concentration: 7.04 (µM), S9 metabolic activation: without S9, exposure time: 24 hours | 0.44 | 1.18 | 89.5
concentration: 8.8 (µM), S9 metabolic activation: with S9, exposure time: 3-4 hours | 0.32 | 1.52 | 92.6
concentration: 8.8 (µM), S9 metabolic activation: without S9, exposure time: 24 hours | 0.52 | 1.86 | 91
concentration: 11 (µM), S9 metabolic activation: with S9, exposure time: 3-4 hours | 0.18 | 1.6 | 105
concentration: 11 (µM), S9 metabolic activation: without S9, exposure time: 24 hours | 1 | 1.96 | 75.2
concentration: 13.7 (µM), S9 metabolic activation: with S9, exposure time: 3-4 hours | 0.34 | 1.82 | 100
concentration: 13.7 (µM), S9 metabolic activation: without S9, exposure time: 24 hours | 0.76 | 1.1 | 86.2
concentration: 17.2 (µM), S9 metabolic activation: with S9, exposure time: 3-4 hours | 0.34 | 1.98 | 115
concentration: 17.2 (µM), S9 metabolic activation: without S9, exposure time: 24 hours | 0.88 | 1.68 | 93.2
concentration: 21.5 (µM), S9 metabolic activation: with S9, exposure time: 3-4 hours | 0.3 | 1.58 | 90.3
concentration: 21.5 (µM), S9 metabolic activation: without S9, exposure time: 24 hours | 0.78 | 1.7 | 65.4
concentration: 26.8 (µM), S9 metabolic activation: with S9, exposure time: 3-4 hours | 0.28 | 2.22 | 118
concentration: 26.8 (µM), S9 metabolic activation: without S9, exposure time: 24 hours | 0.46 | 1.12 | 88.2
concentration: 33.6 (µM), S9 metabolic activation: with S9, exposure time: 3-4 hours | 0.18 | 1.22 | 115
concentration: 33.6 (µM), S9 metabolic activation: without S9, exposure time: 24 hours | 0.52 | 1.4 | 90.2
concentration: 41.9 (µM), S9 metabolic activation: with S9, exposure time: 3-4 hours | 0.14 | 2.74 | 98.7
concentration: 41.9 (µM), S9 metabolic activation: without S9, exposure time: 24 hours | 0.8 | 1.46 | 85.9
concentration: 52.4 (µM), S9 metabolic activation: with S9, exposure time: 3-4 hours | 0.2 | 1.82 | 95.9
concentration: 52.4 (µM), S9 metabolic activation: without S9, exposure time: 24 hours | 0.96 | 1.92 | 79.9
concentration: 65.5 (µM), S9 metabolic activation: with S9, exposure time: 3-4 hours | 0.32 | 1.64 | 99.9
concentration: 65.5 (µM), S9 metabolic activation: without S9, exposure time: 24 hours | 0.88 | 1.74 | 84.6
concentration: 81.9 (µM), S9 metabolic activation: with S9, exposure time: 3-4 hours | 0.16 | 1.16 | 101
concentration: 81.9 (µM), S9 metabolic activation: without S9, exposure time: 24 hours | 1 | 1.9 | 94.3
concentration: 102 (µM), S9 metabolic activation: with S9, exposure time: 3-4 hours | 0.16 | 1.62 | 132
concentration: 102 (µM), S9 metabolic activation: without S9, exposure time: 24 hours | 1.02 | 1.74 | 76.2
concentration: 128 (µM), S9 metabolic activation: with S9, exposure time: 3-4 hours | 0.34 | 1.72 | 107
concentration: 128 (µM), S9 metabolic activation: without S9, exposure time: 24 hours | 1.18 | 1.8 | 88.2
concentration: 160 (µM), S9 metabolic activation: with S9, exposure time: 3-4 hours | 0.42 | 1.78 | 108
concentration: 160 (µM), S9 metabolic activation: without S9, exposure time: 24 hours | 0.96 | 1.42 | 71
concentration: 200 (µM), S9 metabolic activation: with S9, exposure time: 3-4 hours | 0.28 | 1.18 | 103
concentration: 200 (µM), S9 metabolic activation: without S9, exposure time: 24 hours | 1.22 | 1.7 | 74.7
